# Experimental data reported in the supplement of paper PMC8728848.
# This is one part of the list.
# B1: Cohesin-hDCIR (Homo sapiens) (protein)
# chain: LDDLDAVRIKVDTVNAKPGDTVRIPVRFSGIPSKGIANCDFVYSYDPNVLEIIEIEPGDIIVDPNPDKSFDTAVYPDRKIIVFLFAEDSGTGAYAITKDGVFATIVAKVKEGAPNGLSVIKFVEVGGFANNDLVEQKTQFFDGGANVGDTTEPATPTTPVTTPTTTDDLDAASQKYSQLLEKKTTKELVHTTLECVKKNMPVEETAWSCCPKNWKSFSSNCYFISTESASWQDSEKDCARMEAHLLVINTQEEQDFIFQNLQEESAYFVGLSDPEGQRHWQWVDQTPYNESSTFWHPREPSDPNERCVVLNFRKSPKRWGWNDVNCLGPQRSVCEMMKIHLHHHHHH
# Legend:
# Assay in all cases: glycan array binding signal (z-score within array); higher = stronger binding
# Conditions in all cases: glycan notation: IUPAC condensed, linker removed
# [1] = molecular target: Neu5Ac(a2-6)Gal(b1-4)GlcNAc(b1-6)GalNAc
# Procedure, shortened: (§1)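 Glycan array data came from 3228 arrays in the Consortium for Functional Glycomics database, and only arrays with an available protein sequence were kept. Glycan names were put into IUPAC-condensed notation, and columns mapping to the same glycan were averaged. The binding signal is a within-array Z-score, averaged across arrays of one protein sequence run at different concentrations or buffers and across linkers. A negative Z-score can be read as non-binding.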
# [2] = molecular target: Neu5Ac(a2-6)Gal(b1-4)GlcNAc(b1-6)[Gal(b1-3)GlcNAc(b1-3)]Gal(b1-4)Glc
# Procedure, shortened: as §1
# [3] = molecular target: Neu5Ac(a2-6)Gal(b1-4)GlcNAc(b1-6)[Gal(b1-3)]GalNAc
# Procedure, shortened: as §1
# [4] = molecular target: Neu5Ac(a2-6)Gal(b1-4)GlcNAc6S
# Procedure, shortened: as §1
# Neu5Ac(a2-6)GalNAc = molecular target: Neu5Ac(a2-6)GalNAc
# Procedure, shortened: as §1
# [5] = molecular target: Neu5Ac(a2-6)GalNAc(b1-4)GlcNAc
# Procedure, shortened: as §1
# [6] = molecular target: Neu5Ac(a2-6)GalNAc(b1-4)GlcNAc6S
# Procedure, shortened: as §1
# [7] = molecular target: Neu5Ac(a2-6)GlcNAc(b1-4)GlcNAc
# Procedure, shortened: as §1
# [8] = molecular target: Neu5Ac(a2-6)GlcNAc(b1-4)GlcNAc(b1-4)GlcNAc
# Procedure, shortened: as §1
# Neu5Ac(a2-8)Neu5Ac = molecular target: Neu5Ac(a2-8)Neu5Ac
# Procedure, shortened: as §1
# [9] = molecular target: Neu5Ac(a2-8)Neu5Ac(a2-3)Gal(b1-3)GalNAc(b1-4)[Neu5Ac(a2-3)]Gal(b1-4)Glc
# Procedure, shortened: as §1
# [10] = molecular target: Neu5Ac(a2-8)Neu5Ac(a2-3)Gal(b1-3)GalNAc(b1-4)[Neu5Ac(a2-8)Neu5Ac(a2-3)]Gal(b1-4)Glc
# Procedure, shortened: as §1
# [11] = molecular target: Neu5Ac(a2-8)Neu5Ac(a2-3)Gal(b1-4)Glc
# Procedure, shortened: as §1
# [12] = molecular target: Neu5Ac(a2-8)Neu5Ac(a2-3)Gal(b1-4)GlcNAc
# Procedure, shortened: as §1
# [13] = molecular target: Neu5Ac(a2-8)Neu5Ac(a2-3)[Gal(b1-3)GalNAc(b1-4)]Gal(b1-4)Glc
# Procedure, shortened: as §1
# [14] = molecular target: Neu5Ac(a2-8)Neu5Ac(a2-3)[GalNAc(b1-4)]Gal(b1-4)Glc
# Procedure, shortened: as §1
# [15] = molecular target: Neu5Ac(a2-8)Neu5Ac(a2-8)Neu5Ac
# Procedure, shortened: as §1
# [16] = molecular target: Neu5Ac(a2-8)Neu5Ac(a2-8)Neu5Ac(a2-3)Gal(b1-4)Glc
# Procedure, shortened: as §1
# [17] = molecular target: Neu5Ac(a2-8)Neu5Ac(a2-8)Neu5Ac(a2-3)[Gal(b1-3)GalNAc(b1-4)]Gal(b1-4)Glc
# Procedure, shortened: as §1
# [18] = molecular target: Neu5Ac(a2-8)Neu5Ac(a2-8)Neu5Ac(a2-3)[GalNAc(b1-4)]Gal(b1-4)Glc
# Procedure, shortened: as §1
# [19] = molecular target: Neu5Ac(a2-8)Neu5Ac(a2-8)Neu5Ac(a2-8)Neu5Ac(a2-3)[GalNAc(b1-4)]Gal(b1-4)Glc
# Procedure, shortened: as §1
# [20] = molecular target: Neu5Ac(a2-8)Neu5Gc(a2-3)Gal(b1-4)GlcNAc
# Procedure, shortened: as §1
# [21] = molecular target: Neu5Ac(b2-6)Gal(b1-4)GlcNAc
# Procedure, shortened: as §1
# Neu5Ac(b2-6)GalNAc = molecular target: Neu5Ac(b2-6)GalNAc
# Procedure, shortened: as §1
# [22] = molecular target: Neu5Ac9Ac(a2-3)Gal(b1-3)GlcNAc
# Procedure, shortened: as §1
# [23] = molecular target: Neu5Ac9Ac(a2-3)Gal(b1-4)GlcNAc
# Procedure, shortened: as §1
# [24] = molecular target: Neu5Ac9Ac(a2-6)Gal(b1-4)GlcNAc
# Procedure, shortened: as §1
# [25] = molecular target: Neu5Gc(a2-3)Gal(b1-3)GlcNAc
# Procedure, shortened: as §1
# [26] = molecular target: Neu5Gc(a2-3)Gal(b1-3)[Fuc(a1-4)]GlcNAc
# Procedure, shortened: as §1
# Neu5Gc(a2-3)Gal(b1-4)Glc = molecular target: Neu5Gc(a2-3)Gal(b1-4)Glc
# Procedure, shortened: as §1
# [27] = molecular target: Neu5Gc(a2-3)Gal(b1-4)GlcNAc
# Procedure, shortened: as §1
# [28] = molecular target: Neu5Gc(a2-3)Gal(b1-4)GlcNAc(b1-3)Gal(b1-4)GlcNAc(b1-2)Man(a1-3)[Neu5Gc(a2-3)Gal(b1-4)GlcNAc(b1-3)Gal(b1-4)GlcNAc(b1-2)Man(a1-6)]Man(b1-4)GlcNAc(b1-4)GlcNAc
# Procedure, shortened: as §1
# [29] = molecular target: Neu5Gc(a2-3)Gal(b1-4)[Fuc(a1-3)]GlcNAc
# Procedure, shortened: as §1
# [30] = molecular target: Neu5Gc(a2-6)Gal(b1-4)GlcNAc
# Procedure, shortened: as §1
# Neu5Gc(a2-6)GalNAc = molecular target: Neu5Gc(a2-6)GalNAc
# Procedure, shortened: as §1
# [31] = molecular target: Neu5Gc(a2-8)Neu5Ac(a2-3)Gal(b1-4)GlcNAc
# Procedure, shortened: as §1
# [32] = molecular target: Neu5Gc(a2-8)Neu5Gc(a2-3)Gal(b1-4)GlcNAc
# Procedure, shortened: as §1
# [33] = molecular target: Neu5Gc(a2-8)Neu5Gc(a2-3)Gal(b1-4)GlcNAc(b1-3)Gal(b1-4)GlcNAc
# Procedure, shortened: as §1
binder,measurement,setting,value
B1,glycan array binding signal (z-score),[1],-0.358
same,glycan array binding signal (z-score),[2],-0.24
same,glycan array binding signal (z-score),[3],0.064
same,glycan array binding signal (z-score),[4],-0.202
same,glycan array binding signal (z-score),Neu5Ac(a2-6)GalNAc,0.964
same,glycan array binding signal (z-score),[5],-0.194
same,glycan array binding signal (z-score),[6],-0.456
same,glycan array binding signal (z-score),[7],-0.676
same,glycan array binding signal (z-score),[8],-0.585
same,glycan array binding signal (z-score),Neu5Ac(a2-8)Neu5Ac,-0.297
same,glycan array binding signal (z-score),[9],-0.571
same,glycan array binding signal (z-score),[10],0.241
same,glycan array binding signal (z-score),[11],-0.547
same,glycan array binding signal (z-score),[12],-0.016
same,glycan array binding signal (z-score),[13],-0.636
same,glycan array binding signal (z-score),[14],0.046
same,glycan array binding signal (z-score),[15],-0.514
same,glycan array binding signal (z-score),[16],-0.675
same,glycan array binding signal (z-score),[17],0.099
same,glycan array binding signal (z-score),[18],-0.163
same,glycan array binding signal (z-score),[19],0.019
same,glycan array binding signal (z-score),[20],-0.364
same,glycan array binding signal (z-score),[21],-0.634
same,glycan array binding signal (z-score),Neu5Ac(b2-6)GalNAc,-0.673
same,glycan array binding signal (z-score),[22],1.61
same,glycan array binding signal (z-score),[23],-0.625
same,glycan array binding signal (z-score),[24],-0.23
same,glycan array binding signal (z-score),[25],-0.174
same,glycan array binding signal (z-score),[26],0.79
same,glycan array binding signal (z-score),Neu5Gc(a2-3)Gal(b1-4)Glc,-0.517
same,glycan array binding signal (z-score),[27],0.071
same,glycan array binding signal (z-score),[28],0.537
same,glycan array binding signal (z-score),[29],-0.308
same,glycan array binding signal (z-score),[30],0.072
same,glycan array binding signal (z-score),Neu5Gc(a2-6)GalNAc,1.31
same,glycan array binding signal (z-score),[31],-0.614
same,glycan array binding signal (z-score),[32],-0.662
same,glycan array binding signal (z-score),[33],-0.023
